Results as given in publication PMC4336329 (PLoS ONE, 2015).
In all, about 310,000 compounds went through this assay and about 2,200 (0.71%) showed an effect of 50% or more. Effects have a minus sign here. The list shows a part of the results.

What follows are compounds tested against human ether-à-go-go-related gene (hERG) potassium channel (human, UniProt Q12809) (assay: primary screen, population patch clamp on CHO cells stably expressing hERG).
human ether-à-go-go-related gene (hERG) potassium channel, sequence (Q12809 whole entry, looked up): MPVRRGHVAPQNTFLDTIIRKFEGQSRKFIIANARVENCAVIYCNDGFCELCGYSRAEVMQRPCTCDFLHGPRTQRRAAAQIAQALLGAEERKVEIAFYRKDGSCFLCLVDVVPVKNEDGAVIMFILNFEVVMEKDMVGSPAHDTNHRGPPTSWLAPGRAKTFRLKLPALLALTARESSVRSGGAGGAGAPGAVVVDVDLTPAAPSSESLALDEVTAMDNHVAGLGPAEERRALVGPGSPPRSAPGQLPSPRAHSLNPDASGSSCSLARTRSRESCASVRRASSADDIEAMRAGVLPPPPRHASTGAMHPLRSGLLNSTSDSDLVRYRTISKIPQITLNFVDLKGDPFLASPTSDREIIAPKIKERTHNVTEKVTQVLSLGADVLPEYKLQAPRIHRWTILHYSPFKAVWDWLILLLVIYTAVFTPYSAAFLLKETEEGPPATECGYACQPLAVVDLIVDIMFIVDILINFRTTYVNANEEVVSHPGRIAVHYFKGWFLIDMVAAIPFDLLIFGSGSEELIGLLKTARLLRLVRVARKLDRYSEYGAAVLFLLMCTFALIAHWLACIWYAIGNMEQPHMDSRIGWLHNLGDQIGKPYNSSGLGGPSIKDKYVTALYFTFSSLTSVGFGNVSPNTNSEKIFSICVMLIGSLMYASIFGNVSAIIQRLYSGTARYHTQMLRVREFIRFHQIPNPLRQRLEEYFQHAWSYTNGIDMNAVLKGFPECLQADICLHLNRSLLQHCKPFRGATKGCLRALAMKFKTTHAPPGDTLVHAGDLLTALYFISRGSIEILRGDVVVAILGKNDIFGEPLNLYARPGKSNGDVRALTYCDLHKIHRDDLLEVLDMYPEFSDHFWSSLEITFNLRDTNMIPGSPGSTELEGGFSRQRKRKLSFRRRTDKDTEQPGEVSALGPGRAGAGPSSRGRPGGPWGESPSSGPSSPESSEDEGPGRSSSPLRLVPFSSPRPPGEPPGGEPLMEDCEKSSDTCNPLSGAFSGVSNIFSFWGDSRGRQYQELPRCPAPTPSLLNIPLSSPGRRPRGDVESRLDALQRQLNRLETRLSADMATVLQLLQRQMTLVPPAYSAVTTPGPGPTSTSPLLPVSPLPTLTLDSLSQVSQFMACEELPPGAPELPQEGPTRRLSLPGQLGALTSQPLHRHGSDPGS

Row | SMILES | hERG current change (%, negative = inhibition) at 1uM [%]
1 | CCC(C)c1ccc(O)c(N)c1 (stereo not drawn) | 10.8
2 | CC(C)CN(CC(C)C)C(=O)C12CCC(C)(C(=O)C1)C2(C)C (stereo not drawn) | 6.63
3 | COc1ccc(CCNC(=O)c2c(C)nn(CC(C)C)c2Cl)cc1 | 12.2
4 | Cc1cc(NC(=O)c2cc(C(C)(C)C)oc2C)no1 | 10.1
5 | COC(=O)c1c(-c2ccc(OC)cc2)oc2ccc(-c3ccc(OC)nc3)cc12 | 10.7
6 | COc1cccc(NC(=O)C(=O)N/N=C/c2ccc3c(c2)OCO3)c1 | 9.92
7 | CCc1ccccc1NC(=O)C/C(C)=N/NC(=O)COc1ccccc1C | 10.3
8 | NS(=O)(=O)c1ccc(CNC(=O)c2cc(=O)c3cc(Cl)ccc3o2)cc1 | 8.09
9 | CCOC(=O)N1CCC(NC(=O)c2oc3c(C)c(C)ccc3c2C)CC1 | -6.31
10 | CCn1c(/C=C/c2ccccc2F)nc2ccccc2c1=O | 14.6
11 | Clc1cccc2sc(N3CCCCC3)nc12 | 15.8
12 | O=C(NC1CCCC1)c1cc(S(=O)(=O)N2CCCC2)ccc1Cl | 5.71
13 | O=C1OCCN/C1=C\C(=O)c1ccc(Cl)cc1 | 12.1
14 | CCn1cc(C(=O)N2CCCC(C(=O)c3ccc4ccccc4c3)C2)cn1 (stereo not drawn) | 1.11
15 | Cc1sc2ncnc(N3CCC(C(=O)Nc4ccc(F)cc4Cl)CC3)c2c1C | 16.3
16 | Cc1cc(C(=O)CCC(=O)N2CCN(S(=O)(=O)c3ccccc3)CC2)c(C)s1 | 10.4
17 | Cc1ccc(-c2nc(CN3CCN(c4cnccn4)CC3)c(C)o2)o1 | 9.15
18 | Cc1cccc(OCC(=O)Nc2ccc3oc(=O)ccc3c2)c1 | 32.6
19 | CCOC(=O)NCc1cc(-c2nn(C)c(=O)c3ccccc23)ccc1C | 8.38
20 | COc1ccc(Oc2nc3c(C)cccn3c(=O)c2/C=C(\C#N)C(N)=O)cc1 | 3.93
21 | COc1ccc(C(=O)Nc2ccc(NC(=O)c3ccccc3)cc2)cc1S(=O)(=O)N1CCOCC1 | 16
22 | C=CCn1c(=O)c2ccc(C(=O)NCc3ccccc3)cc2n(Cc2ccc(Cl)cc2)c1=O | 2.33
23 | CCCCC(=O)Nc1cccc(NC(=O)c2ccc3c(c2)OCO3)c1 | 5.36

Row | SMILES | hERG current change (%, negative = inhibition) at 1uM [%]
24 | Cc1ccc(NC(=O)c2cc(NC(=O)c3ccccc3C(=O)O)ccc2N2CCCCC2)cc1 | 17
25 | CCN(Cc1ccccc1)C(=O)Cn1c(=O)n(CC(=O)NCc2ccco2)c(=O)c2sccc21 | -10.8
26 | O=C(c1cccc(F)c1)N1CCCC(C(=O)N2CCCCCC2)C1 (stereo not drawn) | 15.9
27 | COc1ccc(/C(C)=N/NC(=O)c2ccccc2N)cc1 | -3.53
28 | COc1ccnc(CSC(N)=Nc2cccc(C(F)(F)F)c2)c1 | -2.06
29 | CC1Cc2ccccc2N1C(=O)COC(=O)Cc1ccc(F)cc1 (stereo not drawn) | 4.75
30 | Cc1nnn(-c2nonc2N)c1C(=O)N/N=C/c1cccc2ccccc12 | -0.425
31 | O=C(CCn1cccc1)NCc1ccc(Cl)cc1 | 6.13
32 | Br.O=C(CN(Cc1ccccc1)C1=NCCS1)c1ccccc1 | -5.07
33 | O=C(COC(=O)c1ccccc1)Nc1cccc(S(=O)(=O)NC2=NCCCCC2)c1 | 20.6
34 | CCN(CC)S(=O)(=O)c1cc(NC(=O)c2cc(-c3ccccn3)nc3ccccc23)ccc1C | 19.9
35 | O=C(c1cn(-c2ccccc2)nc1-c1ccncc1)N1CCCCC1 | -0.0019
36 | CN(C)CCCNCCCNC(=O)/C(=N\O)c1ccccc1 | 7.37
37 | O=C1CNC(=O)N1CC(=O)N1CCCc2ccccc21 | 1.69
38 | c1ccc(-c2nnnn2CCOCCn2nnnc2-c2ccccc2)cc1 | 9.77
39 | Cc1ccccc1C(=O)NCCNC(=O)c1cnccn1 | 9.2
40 | CC1(C)C2CCC1(C)C(OC(=O)C[n+]1ccccc1)C2.[Cl-] (stereo not drawn) | 16.8
41 | Fc1ccccc1NC(=S)NNc1ncc(C(F)(F)F)cc1Cl | 15
42 | CCCCN(c1ccccc1)S(=O)(=O)c1cccc(C(=O)O)c1 | 5.27
43 | COc1ccc(CN(CC2CCC(C(=O)O)CC2)C(=S)Nc2ccc(C)c(Cl)c2)cc1 (stereo not drawn) | 12.5
44 | CN(C(=O)COC(=O)C(Cc1ccccc1)NC(=O)c1ccccc1)c1ccccc1 (stereo not drawn) | 6.68
45 | COc1ccc(OC)c(NC(=O)Cn2c(CCC(=O)O)ccc2-c2cccs2)c1 | 8.9
46 | CC(C)(O)[C@@H]1[C@@H]2C[C@@]3(CC[C@]4(C)C(CCC5[C@@]6(C)CC[C@H](O)C(C)(C)C6CC[C@]54C)[C@@H]13)C(=O)O2 (stereo partly drawn) | 8.97

Row | SMILES | hERG current change (%, negative = inhibition) at 1uM [%]
47 | CN(C)S(=O)(=O)c1ccc(C(=O)N2CCOCC2)cc1 | 14.1
48 | Cc1cc(C)cc(OC(=O)c2cccnc2)c1 | 11.8
49 | COC(=O)CSc1ccc2c(N)c(C(=O)OC)sc2c1 | 4.25
50 | CN(C(=O)Cc1noc2ccccc12)c1ccccc1 | 19.5
51 | COc1cc(C2C(C#N)=C(N)Oc3cc(C)n(CCc4ccccc4)c(=O)c32)cc2c1OCO2 (stereo not drawn) | 4.34
52 | COc1ccc(CC(=O)Nc2ccc(C(=O)Nc3ccccc3C(=O)O)cc2)cc1OC | 11.9
53 | Cc1ccc(C(=O)NCC(=O)OCC(=O)NCC(F)(F)F)cc1 | 7.57
54 | CC1(C)CC(=O)C(C=NC2CC(C)(C)NC(C)(C)C2)=C(O)C1 | 9.28
55 | O=C1NC(=O)N(Cc2ccccc2)C(=O)/C1=C\N1CCCc2ccccc21 | 1.69
56 | S=C(NCCc1ccccc1)N/N=C/C1CCCCC1 | 9.53
57 | COc1ccccc1NC1C=CS(=O)(=O)C1 (stereo not drawn) | 2.92
58 | O=C(COC(=O)[C@@H]1CCCN1S(=O)(=O)c1ccc(Cl)cc1)NC12CC3CC(CC(C3)C1)C2 | 0.824
59 | Cc1nnc(SCC(=O)NC(C)(C)C)n1NCc1ccc(Cl)cc1 | 1.77
60 | CCOC(=O)CSCc1nc(-c2ccc(Cl)cc2)oc1C | 11.5
61 | CSCCC(NC(N)=O)C(=O)NCC1CCCCC1 (stereo not drawn) | 10.8
62 | Cc1cccc(Nc2nc(N)nc(CSC(=S)N3CCOCC3)n2)c1 | 0.164
63 | CCN(Cc1nc(-c2ccccc2)no1)C(=O)COc1cccc(OC)c1 | 10.1
64 | Cc1ccc(NCC(=O)c2ccc([N+](=O)[O-])cc2)cc1 | -9.69
65 | O=C(O)/C=C/C(=O)c1c(-c2ccccc2)[nH]c2ccccc12 | 17.4
66 | O=C(Nc1ncc(Cc2ccc(SC(F)F)cc2)s1)c1ccccc1 | 15.3
67 | O=C1C(C=NCCCN2CCCC2=O)=C(O)c2ccccc21 | 19.3
68 | CCOc1cc2[nH]c(=S)n(C(C)C)c(=O)c2cc1OCC | 6.12
69 | CN(C)C(=O)C(OC(=O)c1ccc2c(c1)CCCC2)c1ccccc1 (stereo not drawn) | 14.6

Row | SMILES | hERG current change (%, negative = inhibition) at 1uM [%]
70 | Fc1cccc(Cl)c1Cn1nnc2c(-n3ccnc3)ncnc21 | 8.45
71 | CN(Cc1cnn(C)c1)S(=O)(=O)c1cccc([N+](=O)[O-])c1 | 13.1
72 | CCC(Sc1nc2cc3c(cc2c(=O)n1Cc1ccco1)OCO3)C(=O)Nc1cccc(OC)c1 (stereo not drawn) | -2.71
73 | Cc1sc2ncnc(OCC(=O)c3ccc(S(=O)(=O)N4CCCC4)cc3)c2c1C | 5.91
74 | CCC1CCc2sc(C(=O)O)cc2C1 (stereo not drawn) | -1.93
75 | CC(C)CNS(=O)(=O)c1cc(C(=O)OCC(=O)N2CCOCC2)c(Cl)cc1Cl | 8.83
76 | CCn1cnnc1SCC(=O)NCC1COc2ccccc2O1 (stereo not drawn) | 16
77 | CCn1c(SCC(=O)Nc2ccc(F)cc2)nc2ccccc2c1=O | 8.8
78 | O=C(CNC(=O)c1ccc(OC(F)F)cc1)NC1CCCc2ccccc21 (stereo not drawn) | -6.84
79 | Nc1nc(SCC(=O)NC2CCCc3ccccc32)n[nH]1 (stereo not drawn) | 0.283
80 | O=C(O)c1cc(NN=Nc2ccc(Br)cc2)cc([N+](=O)[O-])c1 | 9.75
81 | COc1ccc(C(=O)NNC2=NC(C)(C)Cc3ccccc32)cc1 | 11.7
82 | CCOC(=O)c1cnc(SC2CC(=O)N(c3cccc(OC)c3)C2=O)nc1N (stereo not drawn) | 11.3
83 | CCCc1cc(=O)oc2c(C)c(OCC(=O)Nc3cccnc3)ccc12 | -38.7
84 | CCOc1ccccc1CN1CCN(C2CCOCC2)CC1CCO (stereo not drawn) | 8.63
85 | COc1ccc(S(=O)(=O)NCCCCCC(=O)NCCCN2CCOCC2)cc1 | -1.78
86 | CC(C)[C@H](NC(=O)CCCn1nnc2ccccc2c1=O)C(=O)O | 13.1
87 | COc1cc(/C=C2\SC(N3CCCCC3)=NC2=O)cc(OC)c1OC | 11.4
88 | COc1ccc(-n2c(=S)[nH]c3ccccc3c2=S)cc1 | 14.5
89 | CN(C)CCNC(=O)COc1cccc(Cl)c1 | 8.77
90 | CC(C)(C)NC(=O)c1ccnc(C(C)(C)C)c1 | -3.05
